Reference: article PMC10331583, “Control of fibrosis with enhanced safety via asymmetric inhibition of prolyl‐tRNA synthetase 1” (EMBO Molecular Medicine, 2023)
Values joined by “and” are separate entries in the source; they are usually repeats but may differ in a detail not shown here. Equal entries are not always repeated. The source gives many values for each of these; only a part stands here.

What was measured:
WI‐26 VA4 cells [1] = test: CellTiter‐Glo assay (cytotoxicity)
WI‐26 VA4 cells [2] = test: Collagen ELISA (secreted pro‐collagen I)
WI‐26 VA4 cells [3] = test: Puromycin incorporation assay; format: cell-based, human; settings: 10 nM; 0.01 µM
Procedure: After being rinsed with cold PBS twice, the cells were collected and resuspended in 200 μl of the carbonate bicarbonate buffer (Sigma Aldrich, C3041‐50CAP) with protease inhibitor. The cell lysates were obtained by sonication and centrifugation at 20,000 g for 15 min at 4°C. After protein quantification using a Pierce™ BCA Protein Assay Kit (Thermo Fisher Scientific, 23225), 400 ng of the proteins was coated to ELISA plates for 18 h at 4°C. […] The plates were rinsed with the washing buffer for three times after each antibody incubation step. […] The amount of puromycin incorporated in proteins was determined by measuring the absorbance at 450 nm (reference wavelength at 620 nm). Experimental values marked in red with strikethrough text in the Figure Source Data file were excluded from the analysis. These values were determined by considering the values of biological and technical replicates under the same condition, as well as the values at the former and later chemical concentrations.

## O=C(CC1NCCCC1O)Cn1cnc2cc(Br)c(Cl)cc2c1=O (stereo not drawn) [HF, Halofuginone, reference compound]
WI‐26 VA4 cells [1]; 0.3 nM, Experiment #2, replicates, 0.0003 µM
  CellTiter-Glo % of control: 115.42 % of control and 90.13 % of control
WI‐26 VA4 cells [1]; 1 nM, Experiment #1, replicates, 0.001 µM
  CellTiter-Glo % of control: 96.66 % of control
WI‐26 VA4 cells [1]; 1 nM, Experiment #2, replicates, 0.001 µM
  CellTiter-Glo % of control: 118.70 % of control and 87.76 % of control
WI‐26 VA4 cells [1]; 3 nM, Experiment #2, replicates, 0.003 µM
  CellTiter-Glo % of control: 118.55 % of control and 83.06 % of control
WI‐26 VA4 cells [1]; 10 nM, Experiment #1, replicates, 0.01 µM
  CellTiter-Glo % of control: 94.44 % of control
WI‐26 VA4 cells [1]; 10 nM, Experiment #2, replicates, 0.01 µM
  CellTiter-Glo % of control: 90.61 % of control
WI‐26 VA4 cells [1]; 30 nM, Experiment #2, replicates, 0.03 µM
  CellTiter-Glo % of control: 80.64 % of control
WI‐26 VA4 cells [1]; 100 nM, Experiment #1, replicates, 0.1 µM
  CellTiter-Glo % of control: 30.18 % of control
WI‐26 VA4 cells [1]; 100 nM, Experiment #2, replicates, 0.1 µM
  CellTiter-Glo % of control: 26.60 % of control
WI‐26 VA4 cells [1]; 300 nM, Experiment #2, replicates, 0.3 µM
  CellTiter-Glo % of control: 18.70 % of control
WI‐26 VA4 cells [1]; 1000 nM, Experiment #1, replicates, 1 µM
  CellTiter-Glo % of control: 18.92 % of control
WI‐26 VA4 cells [1]; 1000 nM, Experiment #2, replicates, 1 µM
  CellTiter-Glo % of control: 28.88 % of control
WI‐26 VA4 cells [1]; 3000 nM, Experiment #2, replicates, 3 µM
  CellTiter-Glo % of control: 9.38 % of control
WI‐26 VA4 cells [1]; 10000 nM, Experiment #2, replicates, 10 µM
  CellTiter-Glo % of control: 4.86 % of control
WI‐26 VA4 cells [1]; 30000 nM, Experiment #2, replicates, 30 µM
  CellTiter-Glo % of control: 1.57 % of control
WI‐26 VA4 cells [1]; 100000 nM, Experiment #1, replicates, 100 µM
  CellTiter-Glo % of control: 0.10 % of control and -0.08 % of control
WI‐26 VA4 cells [1]; 100000 nM, Experiment #2, replicates, 100 µM
  CellTiter-Glo % of control: -0.13 % of control and 0.13 % of control
WI‐26 VA4 cells [2]; 0.3 nM, 0.0003 µM
  Collagen, % of control (single replicates per experiment): 86.70 % of control and 76.16 % of control and 116.39 % of control and 102.94 % of control and 94.65 % of control and 98.90 % of control and 98.18 % of control and 96.93 % of control
WI‐26 VA4 cells [2]; 1 nM, 0.001 µM
  Collagen, % of control (single replicates per experiment): 98.04 % of control and 96.86 % of control and 109.11 % of control and 102.23 % of control and 91.90 % of control and 133.86 % of control and 92.78 % of control and 98.00 % of control
  Efficacy, % of control, single replicate: 108.08 % of control and 107.58 % of control and 97.95 % of control
WI‐26 VA4 cells [2]; 3 nM, 0.003 µM
  Collagen, % of control (single replicates per experiment): 97.69 % of control and 95.57 % of control and 101.47 % of control and 131.17 % of control and 96.01 % of control and 98.52 % of control and 85.47 % of control
  Efficacy, % of control, single replicate: 105.66 % of control and 104.27 % of control and 120.54 % of control and 100.00 % of control and 108.64 % of control
WI‐26 VA4 cells [2]; 10 nM, 0.01 µM
  Collagen, % of control (single replicates per experiment): 69.88 % of control and 61.64 % of control and 85.14 % of control and 85.08 % of control and 61.39 % of control and 66.93 % of control and 72.84 % of control and 72.49 % of control
  Efficacy, % of control, single replicate: 49.84 % of control and 107.58 % of control and 96.74 % of control and 53.23 % of control and 57.70 % of control
WI‐26 VA4 cells [2]; 30 nM, 0.03 µM
  Collagen, % of control (single replicates per experiment): 16.49 % of control and 14.04 % of control and 24.65 % of control and 24.44 % of control and 22.22 % of control and 23.70 % of control and 29.72 % of control and 17.81 % of control
  Efficacy, % of control, single replicate: 15.09 % of control and 39.75 % of control and 36.88 % of control and 15.59 % of control and 17.04 % of control
WI‐26 VA4 cells [2]; 100 nM, 0.1 µM
  Collagen, % of control (single replicates per experiment): 2.24 % of control and 1.74 % of control and 4.76 % of control and 5.75 % of control and 3.24 % of control and 3.45 % of control (2×) and 3.95 % of control
  Efficacy, % of control, single replicate: 3.45 % of control and 5.89 % of control and 5.36 % of control and 1.66 % of control and 2.29 % of control
WI‐26 VA4 cells [2]; 300 nM, 0.3 µM
  Collagen, % of control (single replicates per experiment): 1.13 % of control and 0.60 % of control and 3.80 % of control and 3.79 % of control and 3.14 % of control and 3.55 % of control and 2.08 % of control and 2.50 % of control
  Efficacy, % of control, single replicate: 3.41 % of control and 4.49 % of control and 3.15 % of control and 0.88 % of control and 1.96 % of control
WI‐26 VA4 cells [2]; 1000 nM, 1 µM
  Collagen, % of control (single replicates per experiment): 4.02 % of control and 2.80 % of control and 2.93 % of control and 2.91 % of control
  Efficacy, % of control, single replicate: 3.21 % of control and 2.82 % of control and 2.14 % of control and 2.22 % of control
WI‐26 VA4 cells [3]
  Puromycin, % of control, single replicate: 94.54 % of control and 100.63 % of control and 99.91 % of control and 99.10 % of control
